Laboratory results published in patent publication US11014902B2, “MYC G-quadruplex stabilizing small molecules and their use” (The United States of America, as represented by the …, priority 2015, dated 2021).

System: c-MYC G4-forming oligonucleotide Pu22
Experiment: CD-thermal melt assay
Settings: equimolar compound and c-MYC G4 oligonucleotide; ellipticity at 262 nm; average of 4 trials ± standard deviation
Procedure: To assess the ability of Compound 1 to bind to the c-MYC G4 in solution, a CD-based thermal melt experiment was employed. […] Next, molecular ellipticity was monitored at 262 nm as a function of temperature in order to measure the melting temperature (Tm). Finally, a sample containing equimolar concentrations of Compound 1 and the c-MYC G4 oligonucleotide was evaluated in the same experiment. Molecules that productively bind to the G4-DNA stabilize the structure and therefore increase its Tm (Murat, et al., Chemical Society reviews 2011, 40, 5293). In the presence of Compound 1, the Tm of the G4-DNA increased by 2.1 (±0.5) ° C. (FIG. 2B).
Thermal stability of the c-MYC G4-forming oligonucleotide Pu22 ([…], SEQ ID NO: 2) in the absence and presence of compounds was recorded on an Aviv Biomedical Inc. Model 420 Circular Dichroism Spectrometer. The c-MYC G-quadruplex was diluted to 50 μM in 10 mM Tris buffer (pH 7.5, containing 100 mM KCl), heated to 95° C. for 5 min, and allowed to cool to room temperature. […] Molecular ellipticity as a function of temperature was used to calculate a Tm (the temperature at which 50% of the formed higher order DNA structure was melted) for each condition using GraphPad Prism 6 software and a nonlinear regression model with a variable slope. ΔTm values were calculated as Tm(+compound)−Tm(control).

Compound: Cc1ccc(NC(=O)c2c(C)oc3ccc(O)c(CN4CCCCCC4)c23)cc1 [Compound 1]
- increase of Tm of the G4-DNA: 2.1 (±0.5) ° C.
